# Reference: PubChem BioAssay AID493208 (National Center for Advancing Translational Sciences (NCATS), 2011)
# Among all 44,000 compounds or so, about 340 (0.77%) were called active. Roughly 5% stayed inconclusive and do not appear here. Calls come from the whole dose curve; as a rule, active = well fitted inhibition curve with a large enough effect; inconclusive = small, poorly fitted or top-dose-only effect; inactive = flat fitted curve, though single readings scatter. The list shows a part of the results.
# Assay: Acumen qHTS Assay for Inhibitors of the mTORC1 Signaling Pathway in MEF (Tsc2-/-, p53-/-) Cells: Sytravon;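 note: plate controls were DMSO for no effect and rapamycin for full effect; nearly all actives have a fitted effect of over 50% in size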
# Conditions: phospho-rpS6 immunofluorescence/PI, 24 h; series mostly up to 38.3 µM; activity change, negative = inhibition: at the top concentration
# Method in brief: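 Readout is phospho-S6 Alexa 488 signal normalized to PI per well, reported as % active cells with thresholds set from rapamycin (7.5 nM) and DMSO controls. Cells: Tsc2-/-, p53-/- MEFs, 24 hrs compound at 37 C; PI cell number serves as viability.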
row,Structure (SMILES),"activity change, negative = inhibition"
1,CCN(CC)S(=O)(=O)c1ccc2c(c1)N(CC(=O)Nc1ccc(F)cc1)C(=O)CO2,inactive: 1.39%
2,Cc1ccc(C)c(N(C)C(=O)C2CCN(c3ncnc4c3nc3n4CCCCC3)CC2)c1,inactive: -1.51%
3,Cn1cnc(S(=O)(=O)N2CCCC(C(=O)Nc3cccc(C#N)c3)C2)c1 (stereo unspecified),inactive: 15.1%
4,COc1ccc(NC(=O)N(Cc2nnc3n2CCCCC3)c2ccc(OC)c(Cl)c2)cc1,inactive: 3.49%
5,Cc1ccc(CNCc2c(C(=O)O)c(C)n(Cc3ccc(C)cc3)c2C)cc1,inactive: -4.81%
6,O=C(Nc1c(C(=O)c2ccc(F)cc2)oc2ccccc12)c1cc(-c2ccccc2)on1,inactive: -10%
7,CCN(CC)S(=O)(=O)c1nnc(NC(=O)COc2cccc(C)c2)s1,inactive: -2.09%
8,CCn1c(=O)cc(OCC(=O)Nc2cc(OC)c(OC)c(OC)c2)c2ccccc21,inactive: -0.648%
9,COCCNC(=O)CSc1nc2ccccc2nc1Cc1ccc(C)cc1,inactive: 4.63%
10,COc1cccc(N2CCN(c3ccc4nnc(CCC(=O)O)n4n3)CC2)c1,inactive: -2.96%
11,CCOc1ccc(CNC(=O)c2ccc3nc(CC)c(CC)nc3c2)cc1OC,inactive: -5.22%
12,CCc1ccc(S(=O)(=O)c2c(C(=O)c3ccc(C)c(C)c3)cnc3ccccc23)cc1,inactive: -11.8%
13,O=C(Cn1c(=O)n(-c2ccccc2)c(=O)c2c3c(sc21)CCCC3)Nc1cccc(F)c1,inactive: -4.41%
14,CN(C)c1ccc(CNC(=O)c2ccc(NC(=O)c3nsc4ccccc34)cc2)cc1,inactive: 5.59%
15,COc1cccc(Cc2nc3ccccc3nc2SCC(=O)Nc2ccccc2F)c1,inactive: 1.92%
16,Cc1c(C(=O)NCc2ccccc2Cl)cccc1-n1cnc2cccnc21,inactive: -9.98%
17,Cc1cccc(CNC(=O)c2ccc3nc(-c4ccccc4)c(-c4ccccc4)nc3c2)c1,inactive: 0.989%
18,Cc1cccc(NC(=O)Cn2c(=O)n(CCc3ccccc3)c(=O)c3sc4ccccc4c32)c1,inactive: -10.2%
19,CC(C)C1N=C2c3ccccc3N=C(SCC(=O)NCc3ccc(F)cc3)N2C1=O (stereo unspecified),inactive: 0%
20,CCC12CN3CC(C)(CN(C1)C3c1c(C)n(C)c3ccccc13)C2=O (stereo unspecified),inactive: 0.775%
21,O=C(CSc1nc2c([nH]c3ccccc32)c(=O)n1-c1ccc(F)cc1)N1CCCc2ccccc21,inactive: 1.34%

row,Structure (SMILES),"activity change, negative = inhibition"
1,CCOC(=O)Cn1c(=O)n(C2CCCCC2)c2nc(-c3ccccc3Cl)nc(C(N)=O)c21,inactive: -2.03%
2,Nc1c(-c2nc(-c3ccc(Cl)cc3)no2)nnn1-c1ccc(C(F)(F)F)c(Cl)c1,inactive: -9.42%
3,COc1cc(NC(=O)c2cc(C3CC3)nc3c2c(C)nn3-c2ccc(C)cc2)cc(OC)c1,inactive: 0.561%
4,Cc1cccc(C)c1OCc1nc2c3cnn(-c4ccccc4Br)c3ncn2n1,inactive: -1.67%
5,CCOC(=O)CC(NC(=O)c1cc2c(=O)n3cccc(C)c3nc2s1)c1ccc(OCC(C)C)c(OC)c1 (stereo unspecified),inactive: -6.47%
6,COc1ccc(-c2c(C)nn3c(-c4ccccc4)cc(-c4ccccc4)nc23)cc1OC,inactive: 1.04%
7,COc1ccc(CCN2C(=O)c3[nH]nc(-c4ccccc4O)c3C2c2ccc(O)c(OC)c2)cc1 (stereo unspecified),inactive: 6.82%
8,O=C(NC1CCCCC1)c1cc(Nc2ccccc2)nc2ccccc12,inactive: -1.52%
9,COC(=O)c1ccc(NC(=O)CCNS(=O)(=O)c2cccc3nsnc23)cc1,inactive: -5.24%
10,CCC(CC)C(=O)Nc1nnc2n1CCS2,inactive: -7.19%
11,Cn1nccc1C(=O)NCc1ccc2c(c1)CCN2C(=O)c1ccc(F)cc1,inactive: -7.65%
12,Cc1ccc(C(=O)N2CCC(c3c[nH]c4ccccc34)(c3c[nH]c4ccccc34)CC2)cc1,inactive: 1.85%
13,COc1cccc(CNC(=O)c2ccc(Cn3c(SCc4ccccc4)nc4cccnc43)cc2)c1,inactive: 1.29%
14,COc1ccccc1Nc1cc(C(=O)NCCCN(C)c2ccccc2)c2ccccc2n1,inactive: -1.14%
15,COc1ccc(OC)c(-c2cc(C(=O)Nc3cccc(Cl)c3C)no2)c1,inactive: -22.9%
16,COc1cc(Cl)ccc1Nc1ncc(C(=O)N2CCN(c3ccccc3OC)CC2)c2ccccc12,inactive: 0.783%
17,O=C(CSc1nc(-c2ccccc2)nc2c1CCCC2)c1ccc(F)cc1,inactive: 11.2%
18,CCC(=O)N1c2ccc(S(=O)(=O)NCc3cccc(OC)c3)cc2CC1C (stereo unspecified),inactive: 5.69%
19,COc1cc(NC(=O)CCc2c(C)nc3nc(-c4cc(OC)cc(OC)c4)nn3c2C)cc(OC)c1,inactive: -7.79%
20,Cc1nc2ccccc2n1CC(O)COc1ccc(C(=O)O)cc1 (stereo unspecified),inactive: 3.7%
21,Cc1ccc(-n2c3nc(=O)n(C)c(=O)c-3cc3c(Cl)cccc32)c(C)c1,inactive: 1.13%

row,Structure (SMILES),"activity change, negative = inhibition"
1,Cc1ccc(NS(=O)(=O)c2ccc(NC(=O)N3CCCC3)cc2)cc1C,inactive: 4.35%
2,CCn1c(C(=O)N2CCC(C(=O)NCCc3ccccc3)CC2)cc2sccc21,inactive: 1.79%
3,CCC(Sc1nnc(-c2ccc(OC)cc2)c(-c2ccc(OC)cc2)n1)C(=O)NC1CCCCC1 (stereo unspecified),inactive: 9.31%
4,CC1CCCN(S(=O)(=O)c2ccc(NC(=O)c3nc(SC(C)C)ncc3Cl)cc2)C1 (stereo unspecified),inactive: -4.56%
5,CCCCN(Cc1ccccc1)C(=O)c1oc(=O)c2ccccc2c1-c1ccc(C)cc1,inactive: 3.07%
6,COc1ccccc1/C=C/c1nc(C#N)c(N2CCCCCC2)o1,inactive: -20.4%
7,COc1ccc(-n2nc(C(=O)N3CCN(c4ccccc4OC)CC3)c3c4ccccc4n(C)c3c2=O)cc1,inactive: -16.1%
8,CCOC(=O)c1ccc(NC(=O)C(CC)Sc2nc3ncccc3[nH]2)cc1 (stereo unspecified),inactive: -5.47%
9,COc1ccc(N2CC(NC(=O)c3ccc(S(=O)(=O)N4CCCC4)cc3)CC2=O)cc1 (stereo unspecified),inactive: 0.477%
10,COc1cccc(N2CC(NC(=O)/C=C\c3ccc4c(c3)OCO4)CC2=O)c1 (stereo unspecified),inactive: -0.0709%
11,CCc1ccccc1NC(=O)CN1C(=O)CCc2cc(S(=O)(=O)N3CCCCC3)ccc21,inactive: 0%
12,Cc1ccc(CNC(=O)c2ccc(CSCc3ccc(Cl)cc3)o2)cc1,inactive: -3.91%
13,CCCCNS(=O)(=O)c1ccc2nc(NC(=O)c3cccnc3)sc2c1,inactive: 3.19%
14,CCOc1ccccc1C(=O)Nc1c(NC)c2ccccc2oc1=O,inactive: 6.88%
15,Cc1ccc(-n2ccnc(NCc3ccccc3)c2=O)cc1C,inactive: -7.76%
16,O=C(NCc1cccc(F)c1)C1=Cc2cc(Br)ccc2OC1,inactive: 0.621%
17,Cn1c(=O)oc2cc(S(=O)(=O)N3CCCC(C(=O)Nc4ccc(Br)cc4F)C3)ccc21 (stereo unspecified),inactive: -3.94%
18,O=C(Nc1cc(C(F)(F)F)ccc1Cl)c1cc2nc(-c3ccc4c(c3)OCO4)cc(C(F)(F)F)n2n1,inactive: 1.68%
19,COc1ccc(N(CC(=O)NCc2ccc(F)cc2)S(=O)(=O)c2c(C)n[nH]c2C)cc1,inactive: 0.166%
